# In PMC4336329 (PLoS ONE, 2015):
# Among all 310,000 compounds or so, about 14,000 (4.5%) showed an effect of 50% or more. Effects have a minus sign here. Some of the results follow.
# Target: human ether-à-go-go-related gene (hERG) potassium channel (human, UniProt Q12809)
# Assay: primary screen, population patch clamp on CHO cells stably expressing hERG
# 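Further: peak tail current of the secondary pulse compared with the same well before compound.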
# Chain of human ether-à-go-go-related gene (hERG) potassium channel (Q12809 whole entry, looked up): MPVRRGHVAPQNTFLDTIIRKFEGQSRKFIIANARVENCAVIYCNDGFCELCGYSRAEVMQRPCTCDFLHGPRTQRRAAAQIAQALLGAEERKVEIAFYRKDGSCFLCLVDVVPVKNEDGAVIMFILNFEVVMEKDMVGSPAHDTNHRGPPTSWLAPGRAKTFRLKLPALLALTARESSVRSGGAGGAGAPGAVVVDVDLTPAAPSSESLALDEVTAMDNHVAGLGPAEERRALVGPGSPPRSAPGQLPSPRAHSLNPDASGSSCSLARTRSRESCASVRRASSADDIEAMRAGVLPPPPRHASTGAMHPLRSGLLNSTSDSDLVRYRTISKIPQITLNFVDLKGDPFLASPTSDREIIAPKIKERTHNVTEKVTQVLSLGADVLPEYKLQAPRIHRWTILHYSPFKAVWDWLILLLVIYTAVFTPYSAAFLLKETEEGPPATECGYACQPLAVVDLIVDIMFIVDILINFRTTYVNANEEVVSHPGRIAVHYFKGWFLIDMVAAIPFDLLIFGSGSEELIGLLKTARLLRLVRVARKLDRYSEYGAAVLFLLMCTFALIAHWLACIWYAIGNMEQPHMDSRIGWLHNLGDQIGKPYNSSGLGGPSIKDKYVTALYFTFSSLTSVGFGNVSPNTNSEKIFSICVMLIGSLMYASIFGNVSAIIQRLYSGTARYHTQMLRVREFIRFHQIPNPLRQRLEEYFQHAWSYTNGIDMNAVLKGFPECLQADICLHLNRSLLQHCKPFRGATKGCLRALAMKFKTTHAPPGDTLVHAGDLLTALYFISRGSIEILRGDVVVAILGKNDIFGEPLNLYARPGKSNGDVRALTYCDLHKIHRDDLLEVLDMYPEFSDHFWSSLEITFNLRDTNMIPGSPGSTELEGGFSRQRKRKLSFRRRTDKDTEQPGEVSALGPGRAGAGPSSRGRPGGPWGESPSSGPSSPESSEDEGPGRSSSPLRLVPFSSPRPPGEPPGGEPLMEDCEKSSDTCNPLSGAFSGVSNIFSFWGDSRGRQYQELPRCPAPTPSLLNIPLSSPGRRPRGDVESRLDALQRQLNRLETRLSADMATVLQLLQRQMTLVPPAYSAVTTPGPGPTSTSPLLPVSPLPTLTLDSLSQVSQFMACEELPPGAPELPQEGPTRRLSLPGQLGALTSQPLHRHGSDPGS
row,Structure (SMILES),"hERG current change (%, negative = inhibition) at 10uM [%]"
1,COc1ccc(C(=O)O)cc1S(=O)(=O)N1CCN(c2ccccn2)CC1,11.8
2,CCOC(=O)c1ccc(Nc2nc(C)cc(C)n2)cc1,16.7
3,O=C(CC12CC3CC(CC(C3)C1)C2)NCC(=O)N1CCCC1,4.32
4,O=C(CN1CCOCC1)N1CCN(c2ccc([N+](=O)[O-])cc2)CC1,-71.6
5,CC(C)(C)c1ccc(OCC(=O)N/N=C/c2cc(Br)ccc2OC(=O)c2ccco2)cc1,22.4
6,Cc1cccc(C)c1N1C(=O)C(Cl)=C(N2CCCC2)C1=O,15.7
7,COc1ccc(NC(=S)N(CCN2CCCCC2)Cc2ccco2)cc1,-57.5
8,CCCN1CNc2c(c(=O)[nH]c(=S)n2CCc2ccc(OC)c(OC)c2)C1,14.5
9,COc1ccc(C2C(=O)N(C3CCCCC3)CC(=O)N2C2CCCCC2)cc1 (stereo not shown),-51.7
10,CC1(C)CC(NC2C3CC4CC(C3)CC2C4)CC(C)(C)N1.Cl (stereo not shown),4.97
11,COc1ccc(Cl)cc1C(=O)NNC(=O)C1COc2ccccc2O1 (stereo not shown),12.8
12,O=C(c1cccc(S(=O)(=O)Nc2ccccc2Cl)c1)N1CCN(C(=O)c2ccco2)CC1,-12.7
13,COc1ccc(CNC(=O)CN(c2ccc(C)cc2)S(=O)(=O)c2c(C)noc2C)cc1,14.5
14,COC(=O)C1=C(c2ccccc2OCc2ccccc2)C[C@@H]2CC[C@H]1N2C(=O)NCc1ccc(N(C)C)cc1,10.9
15,O=C(CN(C(=O)CNC(=O)c1ccco1)c1ccc(F)cc1)NC1CCCC1,5.2
16,COc1ccccc1NS(=O)(=O)c1ccc(O)c(C(=O)OCc2cccc([N+](=O)[O-])c2)c1,-10.9
17,Cc1ncc([N+](=O)[O-])n1CCOc1nonc1N,5.3
18,COc1ccccc1N1CC(C(=O)Nc2nnc(SCC(=O)NCC3CCCO3)s2)CC1=O (stereo not shown),15
19,COc1cc(CN2CCN(CCOCCO)CC2)cc(OC)c1OC,-9
20,COCCCNC(=O)CSc1nc2ccccc2c(=O)n1CCC(=O)NCCc1ccc(OC)c(OC)c1,9.25
21,CCOC(=O)Nc1sc(C(=O)N(C)C)c(C)c1C(=O)OCC,5.73
22,CN1/C(=C/C=N/NC(=O)c2ccc([N+](=O)[O-])cc2)C(C)(C)c2ccccc21,-6.88

row,Structure (SMILES),"hERG current change (%, negative = inhibition) at 10uM [%]"
1,COc1ccc(NC2=CC(c3ccc(F)cc3)N(c3ccc(OC)cc3)C2=O)cc1 (stereo not shown),-6.76
2,CCCC(=O)NNc1c2ccccc2nc2ccccc12,9.96
3,CCOC(=O)C1=C(N)Oc2ccc3ccccc3c2C1c1ccc(O)cc1 (stereo not shown),-7.78
4,C=CCN(CC=C)S(=O)(=O)c1ccc(NC(=S)NC(=O)/C=C/c2cccc3ccccc23)cc1,1.52
5,O=C(CSc1nnc(-c2ccc(S(=O)(=O)N3CCCC3)cc2)o1)NCc1ccco1,-7.57
6,O=C(C1CCCO1)N1CCN(C(=S)Nc2ccc(F)cc2)CC1 (stereo not shown),9.95
7,CN(C)S(=O)(=O)c1cccc(NC(=S)Nc2ccc3cn[nH]c3c2)c1,4.67
8,Cc1ccccc1C(=O)NC(=S)NCC(=O)c1ccccc1,0.429
9,Cc1cnc(C(=O)NC2CC(C)(C)Cc3c2cnn3-c2cccc(F)c2)cn1 (stereo not shown),-33.5
10,CN(CCOc1ccc(Cl)cc1)C(=O)c1ccc2c(=O)n3c(nc2c1)CCC3,-10.3
11,CCOC(=O)CCc1nc2ccccc2[nH]c1=O,-18.7
12,COc1ccc(C(C(=O)NC2CCCC2)N(C(=O)c2csnn2)C2CC2)cc1 (stereo not shown),-6.81
13,O=C(CCCSc1nc2ccccc2c(=O)[nH]1)c1ccc(F)cc1,3.3
14,CC1CCCCC1NC(=O)NC(=O)COC(=O)c1cncc(Br)c1 (stereo not shown),-0.391
15,COC(=O)C1CCN(S(=O)(=O)c2ccc(Br)s2)CC1,-11.2
16,CCOC(=O)c1c(SC)nc(SC)c2c1CCC2,2.05
17,CCN1C(=O)N[C@@H](c2ccco2)C(C(C)=O)=C1C,21.6
18,COc1ccc(Cl)cc1NC(=O)CNC(c1ccccc1)c1ccccc1,12.6
19,Cc1ccc(NC(=O)c2c(O)c3ccccc3n(C)c2=O)nc1,2.32
20,CC(C)(C)c1nnc(NS(C)(=O)=O)s1,8.21
21,OC(COc1ccc2ccccc2c1)CN1CCN(c2ccc(F)cc2)CC1 (stereo not shown),-28
